Results: the supplement of paper PMC6206098
± gives the uncertainty stated by the source. The sequences are guide strands of siRNAs; only the seed at positions 2 to 7 varies.

Legend:
3LL = experiment: cell viability relative to siNT1 control; higher = less toxic; settings: concentration: 10 nM; 96 h; Mus musculus;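 note: Luminescence-based viability of cells reverse transfected in 384-well plates with lipid-complexed siRNAs built on a non-toxic 19mer backbone whose passenger strand carries 2′-O-methyl groups at positions 1 and 2, triplicates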
H460 = experiment: cell viability relative to lipid-only control; HeyA8 human ovarian and H460 human lung cancer; M565 mouse liver and 3LL mouse lung cancer; siNT1 is a non-toxic control siRNA; higher = less toxic; settings: concentration: 10 nM; 96 h; Homo sapiens
M565 = experiment: as above; settings: concentration: 10 nM; 96 h; Mus musculus
HeyA8 = experiment: as above; settings: concentration: 10 nM; 96 h; Homo sapiens
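Throughout, for cell viability relative to lipid-only control: reverse lipid transfection in 384-well plates, in triplicate, of duplexes on a non-toxic 19mer backbone with passenger strand 2′-O-methylated at positions 1 and 2, luminescence viability read-out.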

Sequence: UUUCCCCACAUGUAAACCAAA
- cell viability (3LL): 13 ± 3%
- cell viability (H460): 62.1 ± 8.6%
- cell viability (M565): 14.1 ± 2.5%
- cell viability (HeyA8): 52.4 ± 0.74%

Sequence: UAAAUAGACAUGUAAACCAAA
- cell viability (3LL): 105 ± 8.7%
- cell viability (H460): 78.9 ± 8.8%
- cell viability (M565): 97.5 ± 17%
- cell viability (HeyA8): 105 ± 12%

Sequence: UCGGCAGACAUGUAAACCAAA
- cell viability (3LL): 78.1 ± 14%
- cell viability (H460): 58.7 ± 3.4%
- cell viability (M565): 27.3 ± 7.8%
- cell viability (HeyA8): 48.8 ± 2.3%

Sequence: UUCCCGUACAUGUAAACCAAA
- cell viability (3LL): 76.1 ± 3.3%
- cell viability (H460): 65.2 ± 8.2%
- cell viability (M565): 99.4 ± 16%
- cell viability (HeyA8): 59.7 ± 2.2%

Sequence: UUACAUCACAUGUAAACCAAA
- cell viability (3LL): 41.9 ± 15%
- cell viability (H460): 49 ± 4.1%
- cell viability (M565): 102 ± 6.4%
- cell viability (HeyA8): 74 ± 4%

Sequence: UAUCCUGACAUGUAAACCAAA
- cell viability (3LL): 107 ± 3.4%
- cell viability (H460): 94.7 ± 8.5%
- cell viability (M565): 91.1 ± 4.1%
- cell viability (HeyA8): 97.3 ± 6.5%

Sequence: UGGCCCAACAUGUAAACCAAA
- cell viability (3LL): 15.4 ± 7%
- cell viability (H460): 64.2 ± 7.6%
- cell viability (M565): 41.4 ± 0.71%
- cell viability (HeyA8): 49.5 ± 7.6%

Sequence: UGCAGCCACAUGUAAACCAAA
- cell viability (3LL): 15.4 ± 4.1%
- cell viability (H460): 43 ± 3.1%
- cell viability (M565): 10 ± 0.57%
- cell viability (HeyA8): 51.7 ± 1.9%

Sequence: UUGAUAGACAUGUAAACCAAA
- cell viability (3LL): 67 ± 2.5%
- cell viability (H460): 51.2 ± 7.8%
- cell viability (M565): 96.7 ± 12%
- cell viability (HeyA8): 91.2 ± 6.4%

Sequence: UGUUCACACAUGUAAACCAAA
- cell viability (3LL): 93.4 ± 3.5%
- cell viability (H460): 49.1 ± 5.3%
- cell viability (M565): 34.9 ± 6.6%
- cell viability (HeyA8): 8.23 ± 1.4%

Sequence: UUUGGUCACAUGUAAACCAAA
- cell viability (3LL): 74.4 ± 7.8%
- cell viability (H460): 47.6 ± 4.5%
- cell viability (M565): 84.7 ± 10%
- cell viability (HeyA8): 85.5 ± 6.5%

Sequence: UGUUCGAACAUGUAAACCAAA
- cell viability (3LL): 94.3 ± 5.3%
- cell viability (H460): 73.1 ± 16%
- cell viability (M565): 41.4 ± 7.4%
- cell viability (HeyA8): 79.8 ± 4.4%

Sequence: UCAGUUCACAUGUAAACCAAA
- cell viability (3LL): 92.5 ± 9.6%
- cell viability (H460): 53.8 ± 1.5%
- cell viability (M565): 13.3 ± 2.1%
- cell viability (HeyA8): 64.3 ± 4.4%

Sequence: UGUAGAUACAUGUAAACCAAA
- cell viability (3LL): 46.3 ± 21%
- cell viability (H460): 83.2 ± 8.3%
- cell viability (M565): 17.1 ± 3.6%
- cell viability (HeyA8): 28 ± 7.6%

Sequence: UUAUUACACAUGUAAACCAAA
- cell viability (3LL): 25.4 ± 4.5%
- cell viability (H460): 56 ± 7.4%
- cell viability (M565): 62.4 ± 5.8%
- cell viability (HeyA8): 66.6 ± 1.1%

Sequence: UACUCCGACAUGUAAACCAAA
- cell viability (3LL): 76.8 ± 9.2%
- cell viability (H460): 88.1 ± 7.6%
- cell viability (M565): 33.2 ± 2.3%
- cell viability (HeyA8): 65.4 ± 4.7%

Sequence: UGCAUAUACAUGUAAACCAAA
- cell viability (3LL): 83.6 ± 11%
- cell viability (H460): 71.5 ± 22%
- cell viability (M565): 40.9 ± 4%
- cell viability (HeyA8): 67 ± 5.5%

Sequence: UUAGCGAACAUGUAAACCAAA
- cell viability (3LL): 83.9 ± 14%
- cell viability (H460): 102 ± 8.4%
- cell viability (M565): 69.1 ± 2.7%
- cell viability (HeyA8): 94.8 ± 2.8%

Sequence: UUCCGCAACAUGUAAACCAAA
- cell viability (3LL): 87.5 ± 24%
- cell viability (H460): 88.3 ± 6.3%
- cell viability (M565): 67.4 ± 6.5%
- cell viability (HeyA8): 91.1 ± 2.8%

Sequence: UACCACGACAUGUAAACCAAA
- cell viability (3LL): 76.1 ± 5.2%
- cell viability (H460): 49.8 ± 9.5%
- cell viability (M565): 35.4 ± 5.9%
- cell viability (HeyA8): 91.2 ± 2.1%

Sequence: UAGGCAAACAUGUAAACCAAA
- cell viability (3LL): 64.7 ± 11%
- cell viability (H460): 59.4 ± 6%
- cell viability (M565): 14.8 ± 2.1%
- cell viability (HeyA8): 69.3 ± 9.5%

Sequence: UUCUCGGACAUGUAAACCAAA
- cell viability (3LL): 78.4 ± 4.1%
- cell viability (H460): 59.8 ± 5.9%
- cell viability (M565): 74.9 ± 4.4%
- cell viability (HeyA8): 87.9 ± 5.1%

Sequence: UACUGUAACAUGUAAACCAAA
- cell viability (3LL): 87.4 ± 16%
- cell viability (H460): 71.9 ± 18%
- cell viability (M565): 46 ± 11%
- cell viability (HeyA8): 100 ± 4.5%

Sequence: UUUUCUCACAUGUAAACCAAA
- cell viability (3LL): 88.8 ± 6.8%
- cell viability (H460): 52.7 ± 4.9%
- cell viability (M565): 99.2 ± 12%
- cell viability (HeyA8): 75.3 ± 6.5%

Sequence: UCGAGAUACAUGUAAACCAAA
- cell viability (3LL): 81.2 ± 27%
- cell viability (H460): 67.9 ± 5.7%
- cell viability (M565): 54.1 ± 4.2%
- cell viability (HeyA8): 82.9 ± 2.5%

Sequence: UCUGCAAACAUGUAAACCAAA
- cell viability (3LL): 101 ± 15%
- cell viability (H460): 75 ± 5.1%
- cell viability (M565): 81.2 ± 16%
- cell viability (HeyA8): 91.9 ± 8.2%

Sequence: UGUCCUAACAUGUAAACCAAA
- cell viability (3LL): 68.8 ± 16%
- cell viability (H460): 75 ± 11%
- cell viability (M565): 51.5 ± 7.2%
- cell viability (HeyA8): 87.2 ± 6.8%

Sequence: UAGAUACACAUGUAAACCAAA
- cell viability (3LL): 36.2 ± 7.5%
- cell viability (H460): 76.1 ± 12%
- cell viability (M565): 54 ± 4%
- cell viability (HeyA8): 71.7 ± 5.3%

Sequence: UGCAACAACAUGUAAACCAAA
- cell viability (3LL): 85.1 ± 7.2%
- cell viability (H460): 65 ± 6.8%
- cell viability (M565): 70.3 ± 17%
- cell viability (HeyA8): 70.3 ± 4.1%

Sequence: UGCCGACACAUGUAAACCAAA
- cell viability (3LL): 34.7 ± 8.7%
- cell viability (H460): 39.8 ± 7.1%
- cell viability (M565): 30.9 ± 2.7%
- cell viability (HeyA8): 8.66 ± 1.2%

Sequence: UGCUCCCACAUGUAAACCAAA
- cell viability (3LL): 7.69 ± 0.87%
- cell viability (H460): 22.9 ± 2.2%
- cell viability (M565): 28.3 ± 8.4%
- cell viability (HeyA8): 21.2 ± 1.7%

Sequence: UAGCCUAACAUGUAAACCAAA
- cell viability (3LL): 101 ± 20%
- cell viability (H460): 75.7 ± 11%
- cell viability (M565): 62.6 ± 7.8%
- cell viability (HeyA8): 92.4 ± 14%

Sequence: UGUGAUCACAUGUAAACCAAA
- cell viability (3LL): 84.9 ± 3.6%
- cell viability (H460): 53.6 ± 2.3%
- cell viability (M565): 83.1 ± 3.1%
- cell viability (HeyA8): 31.4 ± 5%

Sequence: UUACGUUACAUGUAAACCAAA
- cell viability (3LL): 108 ± 8.8%
- cell viability (H460): 108 ± 14%
- cell viability (M565): 62.4 ± 2.5%
- cell viability (HeyA8): 97.2 ± 5.5%

Sequence: UUGCAUGACAUGUAAACCAAA
- cell viability (3LL): 80.9 ± 5.1%
- cell viability (H460): 55 ± 7%
- cell viability (M565): 53.6 ± 12%
- cell viability (HeyA8): 72.4 ± 3.9%

Sequence: UGGUGGAACAUGUAAACCAAA
- cell viability (3LL): 8.99 ± 3.9%
- cell viability (H460): 6.83 ± 0.6%
- cell viability (M565): 12.2 ± 0.93%
- cell viability (HeyA8): 2 ± 1.5%

Sequence: UGAGAGGACAUGUAAACCAAA
- cell viability (3LL): 31.3 ± 5.2%
- cell viability (H460): 27.3 ± 2.3%
- cell viability (M565): 4.28 ± 1%
- cell viability (HeyA8): 18.7 ± 0.65%

Sequence: UGCCCUAACAUGUAAACCAAA
- cell viability (3LL): 85.2 ± 14%
- cell viability (H460): 76.7 ± 23%
- cell viability (M565): 51.2 ± 6.1%
- cell viability (HeyA8): 82.8 ± 6.6%

Sequence: UGCUGCAACAUGUAAACCAAA
- cell viability (3LL): 34.3 ± 8.8%
- cell viability (H460): 57.6 ± 8.5%
- cell viability (M565): 6.09 ± 2.9%
- cell viability (HeyA8): 30.8 ± 3.3%

Sequence: UUACCAUACAUGUAAACCAAA
- cell viability (3LL): 65.4 ± 4.1%
- cell viability (H460): 44.3 ± 4.3%
- cell viability (M565): 78.1 ± 15%
- cell viability (HeyA8): 67.9 ± 2.1%

Sequence: UAGCAUAACAUGUAAACCAAA
- cell viability (3LL): 91.1 ± 12%
- cell viability (H460): 60.4 ± 3.9%
- cell viability (M565): 59.7 ± 17%
- cell viability (HeyA8): 89.1 ± 3.7%

Sequence: UUUGAUGACAUGUAAACCAAA
- cell viability (3LL): 99.5 ± 6.7%
- cell viability (H460): 81.5 ± 7.3%
- cell viability (M565): 91.2 ± 17%
- cell viability (HeyA8): 91.3 ± 5.8%

Sequence: UCCCUGGACAUGUAAACCAAA
- cell viability (3LL): 102 ± 11%
- cell viability (H460): 36.7 ± 5.6%
- cell viability (M565): 23.7 ± 6.7%
- cell viability (HeyA8): 52.7 ± 1.4%

Sequence: UCUUUUGACAUGUAAACCAAA
- cell viability (3LL): 86.4 ± 14%
- cell viability (H460): 69.9 ± 4.1%
- cell viability (M565): 84 ± 8.3%
- cell viability (HeyA8): 86.7 ± 9.7%

Sequence: UUCCUCAACAUGUAAACCAAA
- cell viability (3LL): 66.6 ± 14%
- cell viability (H460): 55.2 ± 13%
- cell viability (M565): 65.2 ± 12%
- cell viability (HeyA8): 87.5 ± 2.3%

Sequence: UCCCAGCACAUGUAAACCAAA
- cell viability (3LL): 48.1 ± 12%
- cell viability (H460): 41.3 ± 4.1%
- cell viability (M565): 51 ± 5.6%
- cell viability (HeyA8): 50.8 ± 7.2%

Sequence: UCAUAUCACAUGUAAACCAAA
- cell viability (3LL): 96.5 ± 9.8%
- cell viability (H460): 30.1 ± 4.7%
- cell viability (M565): 61.6 ± 17%
- cell viability (HeyA8): 75.5 ± 3%

Sequence: UUUUGGAACAUGUAAACCAAA
- cell viability (3LL): 105 ± 15%
- cell viability (H460): 74 ± 19%
- cell viability (M565): 92.3 ± 5.7%
- cell viability (HeyA8): 80.7 ± 8.2%
